The values below come from the RNAGym collection of RNA variant scans (doi:10.7554/elife.90254).

The labels stand for the following.
B1: LINE1-mini (parent)
chain: GGCAGAGCUCAACACAGCGUGGCAAAGUGGCUGUGGCUAGACUGCC

Read counts are not given, so values of variants with three or more changes are uncertain.

In this data set the parent is B1. The experiment in a line: self-cleavage, relative activity (ratio to wild type); higher = more cleavage; in vitro, sequencing; the parent is a self-cleaving ribozyme.
For A4C A11U C13A C31A, the self-cleavage came to 0.03.

With A4C A11G C42U, the self-cleavage was found to be 0.08.

For A4C U20A A26C C37A, the self-cleavage was determined as 0.02. On to A4C C13U G17A G40A, for which the self-cleavage worked out at 0.06.

In the case of A4C C10U A14G G19U G36A, the self-cleavage was found to be 0.03.

Regarding A4C U20A U28A, the self-cleavage was 0.06. With A4C G5U C37G, the self-cleavage came out at 0.06. Take A4C A12C C23A U34A: the self-cleavage is 0.03. On to A4C G7U G30C G40A, for which the self-cleavage was 0.05. To A4C G36A U43A belongs 0.21; to A4C G5U C13U, 0.06. Regarding A4C C31G G33A G36U, the self-cleavage came out at 0.06. In the case of A4C C15G G30A G33U C45A C46A, the self-cleavage was 0. A4C C23A G29A U32A C45G: the self-cleavage was found to be 0.04. Under A4C C15U C31A U32G C37G stands 0.05. Under A4C A26G U32C G40U stands 0.16; under A4C A12C U43A, 0.02; under A4C C10G G33U A39U G40C A41C, 0.01. Under A4C C10G G36A A41G C46A stands 0; under A4C C18G U28A, 0. In the case of A4C C15G G21A C42G U43G, the self-cleavage was 0.02. A4C U28G C31G G36C: the self-cleavage was found to be 0.06. Under A4C G21C G27U stands 0.58; under A4C C13A A41C, 0.02. On to A4C C8G G27A U32A, for which the self-cleavage turned out to be 0.04. Under A4C A14U U32A stands 0.08; under A4C G17U U28G G30U G33U, 0.06; under A4C C18U G35U, 0.09. Consider A4C G19C C23G G44U, for which the self-cleavage amounted to 0.07. On to A4C A14U G19U C31A G33C A41G, for which the self-cleavage stood at 0.03. A4C G5C G17A G29C G35A: the self-cleavage came out at 0.41. With A4C C18U G22U C23A C37U, the self-cleavage was determined as 1.07. With A4C A14U G21U A41U, the self-cleavage worked out at 0.02.

Regarding A4C G5A A24U, the self-cleavage was determined as 0.18. With A4C G21A U32C U43A, the self-cleavage was found to be 0.07. As for A4C C13A U20A G22U C23A U28C G33A, the self-cleavage came to 0.04.

For the variant A4C U34A G36U C42A, the self-cleavage was 0.05.

Consider A4C A25U G29A A41U, for which the self-cleavage turned out to be 0.25. For the variant A4C G7U C10A G27A C45A, the self-cleavage worked out at 0. For the variant A4C C8G A14C G44A, the self-cleavage was 0.04. As to A4C G17C G36A, the self-cleavage turned out to be 0.29.

For the variant A4C C23A G30C G35U A39U, the self-cleavage was 0.09. Under A4C G22A U34A stands 0.03; under A4C A11C C45U, 0.01. For A4C U9G C46U, the self-cleavage is 0.03. Consider A4C G5A U20A U38A U43A, for which the self-cleavage was determined as 0.

Turning to A4C G22A C31A, the self-cleavage is 0.05.

Turning to A4C U9G C15A U38C A41C, the self-cleavage amounted to 0.02. Under A4C U32G U43C G44C stands 0.02; under A4C A16C G21C A25C C45A, 0.21. In the case of A4C G30U A41U, the self-cleavage amounted to 0.03.

As for A4C A14U C15U G27A A39G, the self-cleavage came to 0.01. Regarding A4C C13A G36U, the self-cleavage worked out at 1.39.

Turning to A4C C15A A24C A39C, the self-cleavage turned out to be 0.01. In the case of A4C C10A A26G U32A C45U, the self-cleavage stood at 0.02.

For A4C A16C G27A U28G C45G, the self-cleavage was determined as 0. As for A4C C10G C31A C46U, the self-cleavage came out at 0.02. For A4C G30U U43C, the self-cleavage came out at 0.25. To A4C A26U G30U belongs 0.24; to A4C A11G A16G C31A U32A G36U, 0; to A4C U28A U32A, 0.02. For the variant A4C U9C C10U C15G G27U, the self-cleavage stood at 0.04. Turning to A4C C31U C46G, the self-cleavage is 0.02. As for A4C A26G G40U C45A, the self-cleavage worked out at 0.03. On to A4C C10G A14C G36U G40A C45A, for which the self-cleavage turned out to be 0.01. Take A4C A14U C46A: the self-cleavage is 0.28.

With A4C A16C A24G U28A G36U, the self-cleavage was 0.05. To A4C C8G C23A G29U C31A belongs 0.06. Regarding A4C A16U G19U C46U, the self-cleavage amounted to 0.09. To A4C C23A A24U G36A G40U belongs 0.5; to A4C U20C G35A, 0.05; to A4C A11C A26C G27C, 0.01. As to A4C A24G A26C G36U, the self-cleavage is 0.15.

Take A4C G27C A39C A41C U43G: the self-cleavage came to 0.12. Turning to A4C A14C G19A, the self-cleavage worked out at 0.08. As for A4C C10U G30C G40U, the self-cleavage came to 0.05. Take A4C C8A U9C C23A G35U: the self-cleavage was 0.11.

For the variant A4C C8U C18U G35C C37U, the self-cleavage worked out at 0.07. As for A4C A11U A26U, the self-cleavage worked out at 0.05. Turning to A4C A26U U34A, the self-cleavage came to 0.1. In the case of A4C C15A A39U, the self-cleavage was determined as 0.05. For the variant A4C C18U C37A C46G, the self-cleavage was determined as 0.28. With A4C C10U C45G, the self-cleavage amounted to 0.07. For the variant A4C C13A C15A G29A U38C C45A C46U, the self-cleavage was determined as 0.02. In the case of A4C C13A C15U C42U, the self-cleavage was determined as 0.8. On to A4C G30A U38A C45G, for which the self-cleavage turned out to be 0.56.

For the variant A4C G5U C8A C15A U38A, the self-cleavage turned out to be 0.2. Take A4C G5U A14G U28G G29A C31U G44U: the self-cleavage was found to be 0. For A4C A11C G22U, the self-cleavage worked out at 0.02.

In the case of A4C G21U A41U, the self-cleavage amounted to 0.05.

Regarding A4C U20C G22C A26G C37A, the self-cleavage stood at 0.03. Turning to A4C C15G G17A G36U C42U G44A, the self-cleavage was 0.04. To A4C U43A G44U belongs 0.1; to A4C G5U G44U, 0.09. Turning to A4C C13U C45A C46U, the self-cleavage turned out to be 0.02. As for A4C G17U G36A, the self-cleavage worked out at 0.19.

On to A4C G29U A39G, for which the self-cleavage was 0.11. A4C A11U C15G C46G: the self-cleavage stood at 0.01. To A4C G22A G30C belongs 0.17.

Consider A4C G21U G22A, for which the self-cleavage stood at 0.19. For the variant A4C C23A G29A, the self-cleavage is 0.18. On to A4C A11C A16C G30U C45U, for which the self-cleavage was found to be 0.01. To A4C G5U G22U U28A G30U U32A belongs 0.04. To A4C G40A A41U belongs 0.1; to A4C G21U A24C U43C, 0.05.

Turning to A4C A11U U28C A41C, the self-cleavage was found to be 0.01. Under A4C A12C G21A U38A A41U C42G U43A stands 0. As to A4C U28C U32G C37U C42A, the self-cleavage came out at 0.08. Regarding A4C C8G A16G G30A C42G, the self-cleavage is 0.03. For A4C G7U A24G C37U, the self-cleavage came out at 0.03. For the variant A4C A24C C31U G44U, the self-cleavage came out at 0.08. Consider A4C G7U U34G, for which the self-cleavage is 0.65. In the case of A4C G36A A39G G44U, the self-cleavage was found to be 0.08. Turning to A4C A41C C42A, the self-cleavage stood at 0.07. As for A4C U32C G35C, the self-cleavage was 0.06. Under A4C U28C G44C stands 0.03; under A4C A12C A16G G19A, 0.05; under A4C C10A G19U G30C, 0.02.

On to A4C G7A U32C, for which the self-cleavage is 0.3.

In the case of A4G A6G C10U G21A C42A, the self-cleavage worked out at 0.02. A4C C8G C15A G21C G30A C45A: the self-cleavage is 0.07. Regarding A4C A11U G40A, the self-cleavage worked out at 0.02. Under A4C C18A A41G stands 0.02.

On to A4C A16G G44A, for which the self-cleavage is 0.06. On to A4C C13G C42A, for which the self-cleavage came out at 0.13. A4C G27C C45U: the self-cleavage turned out to be 0.11. A4C U9A U20A G35U: the self-cleavage was 0.25. Under A4C G5U C23U C37G C45U stands 0.03; under A4C A12U G22U C37U G40U, 0.2. With A4C A16C G29U, the self-cleavage was 0.06. Under A4C A14C A16U G22C G30C G36A G40C stands 0.02; under A4C C10G C45U, 0.02. Regarding A4C C15A G27C G33C A39C, the self-cleavage worked out at 0.01. With A4C G19C G27U C45U, the self-cleavage is 0.05. Under A4C C10A C15G C18G stands 0.07; under A4C G5A A11C G36U, 0.01; under A4C G19U G33U U34C, 0.05.

A4C G7U G29C: the self-cleavage was 0.02. For A4C C15U G17U G30U G33U, the self-cleavage was found to be 0.17. Under A4C G19A C37A U38A C45G stands 0.05. As to A4C G29A G30U U34A, the self-cleavage stood at 0.04. To A4C A12U C13A G17A G21A C23U U34C belongs 0.11; to A4C C23A C45U, 0.42. For the variant A4C A11C C37U, the self-cleavage came out at 0.01. As for A4C C8U A16C G29A C45U, the self-cleavage came out at 0.06.

For the variant A4C G7A U9G, the self-cleavage was 0.09.

For A4C C18A G22C, the self-cleavage is 0.09. Consider A4C G27A G30U U32G, for which the self-cleavage was 0.25. In the case of A4C C13U C15U, the self-cleavage amounted to 0.07.

As to A4C U28C U32G G40U G44A, the self-cleavage is 0.1.

On to A4C A14U G33U, for which the self-cleavage came to 0.23. Under A4C G19A A26C G30U G35C G44A stands 0.04; under A4C C8U A16G C23U A25C U28A G40A G44C, 0.07; under A4C G17A G21U, 0.18.

For the variant A4C G29A G40C C46G, the self-cleavage was determined as 0.12.

In the case of A4C A16U C18G, the self-cleavage was 0.2. In the case of A4C A14U C23G A26G, the self-cleavage worked out at 0.05. Turning to A4C C15U A41U, the self-cleavage is 0.08. With A4C C31A U38A, the self-cleavage is 0.09. As to A4C G5U C8A C18A A41G, the self-cleavage amounted to 0.11. Consider A4C C15A U20G G33A, for which the self-cleavage worked out at 0.02. For the variant A4C U9C A25G, the self-cleavage turned out to be 0.

Regarding A4C C37G U38G C46U, the self-cleavage amounted to 0.02.

In the case of A4C G22A G36A, the self-cleavage amounted to 0.24. A4C A11C C31U G33A: the self-cleavage was 0.03. On to A4C A16C U32G, for which the self-cleavage was 0.19. Consider A4C A14G C15A G40U C42U, for which the self-cleavage worked out at 0.05.
